Data published in the supplement of paper PMC4723716.
± gives the uncertainty stated by the source. The full ranking holds about 9,900 compounds; the median of “viability index relative to DMSO control” is about 1, and the lowest 2% start at about 0.85. The list shows a part of the results.

System: Plasmodium falciparum NF54 stage V gametocytes
Test: viability index relative to DMSO control (fraction); higher = less gametocyte killing
Details: 2.5 µM, library set: Broad Institute DOS, incubation time: 72 h
Summary of the method: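 P. falciparum NF54 stage V gametocytes in serum-free screening medium (0.75% gametocytemia, 1.25% hematocrit, 10 µl) were incubated with compound at 2.5 µM in 1,536-well plates for 72 hr at 37°C under low oxygen. Then 3 µl of 2.5 µM MitoTracker Red CMXRos plus 0.13% saponin was added for one to two hours. One field per well was imaged, 20–70 µm2 red particles were counted, and the viability index was the count divided by the plate mean of DMSO wells.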

`C[C@@H]1CN([C@@H](C)CO)C(=O)c2cccc(N(C)C)c2O[C@@H]1CN(C)Cc1ccncc1` and `C[C@H]1CN([C@@H](C)CO)C(=O)c2cc(-c3cccc(C(=O)N(C)C)c3)cnc2O[C@H]1CN(C)C(=O)Cc1ccccn1` are the same in viability index: 1.04 ± 0.12 for the first, 1.04 ± 0.013 for the second.

Going from `O=C(c1ccccn1)N1CC[C@@H]2[C@H](CO)Nc3ccc(C#Cc4cccnc4)cc3[C@@H]21` to `CN(C)C(=O)c1cccc(-c2ccc3c(c2)[C@@H]2[C@@H](CCN2Cc2nccs2)[C@@H](CO)N3)c1`, the viability index falls from 1.07 ± 0.017 to 0.785 ± 0.07.

`O=C(C[C@H]1C=C[C@H](NC(=O)CCN2CCCCC2)[C@H](CO)O1)Nc1nccs1` and `O=C(C[C@H]1C=C[C@@H](NC(=O)C2CCC2)[C@H](CO)O1)NC1CCCCC1` are within error of each other in viability index: 1.07 ± 0.062 for the first, 1.01 ± 0.033 for the second.

`CN1C(=O)c2cc(NC(=O)Cc3cccs3)ccc2OC[C@@H]2O[C@H](CC(=O)N[C@@H]3CCN(Cc4ccccc4)C3)CC[C@@H]21` and `CCS(=O)(=O)Nc1ccc2c(c1)C(=O)N(C)[C@@H]1CC[C@@H](CC(=O)N[C@H]3CCN(Cc4ccccc4)C3)O[C@@H]1CO2` are within error of each other in viability index: 1.11 ± 0.14 for the first, 1.06 ± 0.088 for the second.

`Cc1ccccc1-c1ccc([C@H]2[C@@H]3CN(C(=O)Cc4ccncc4)C[C@H]2N3)cc1` and `COc1cccc(-c2ccc([C@H]3[C@@H](C#N)N(C(=O)Cc4ccncc4)[C@@H]3CO)cc2)c1` are within error of each other in viability index: 1.16 ± 0.053 for the first, 1.109 ± 0.0041 for the second.

First: NCC[C@H]1CC[C@H](NC(=O)Cc2ccncc2)[C@H](CO)O1
Second: Cc1cccc(S(=O)(=O)N[C@@H]2CC[C@@H](CCNC(=O)Nc3cc(F)ccc3F)O[C@@H]2CO)c1
The viability index of the first is lower: 1.059 ± 0.0073 for the first, 1.15 ± 0.057 for the second.

`COc1ccc2c3c([nH]c2c1)[C@H](CO)N(C[C@]31CCN(CC1)S(C)(=O)=O)C(=O)c1ccccn1` and `CCS(=O)(=O)N1C[C@]2(CCN(Cc3cccc(OC)c3)CC2)c2c([nH]c3cc(OC)ccc23)[C@@H]1CO` are within error of each other in viability index: 1.06 ± 0.045 for the first, 1.05 ± 0.15 for the second.

Going from `CO[C@@H]1CC[C@H]2CCOc3c(C#N)cccc3C(=O)N(C)C[C@H](c3ccccc3)CC(=O)N(C)C[C@@H]1O2` to `COc1cccc(C(=O)Nc2ccc3c(c2)OC[C@@H](C)N(CCc2ccccc2)C[C@@H](C)[C@H](OC)CN(C)C3=O)c1`, the viability index rises from 1.01 ± 0.015 to 1.08 ± 0.015.

`O=C(NCc1cc(F)cc(F)c1)[C@@H]1[C@@H](CO)[C@@H]2Cn3c(cccc3=O)[C@H]1N2` and `CCCNC(=O)N1[C@@H]2c3cccc(=O)n3C[C@H]1[C@H](CO)[C@H]2C(=O)N1CCC(Cc2ccccc2)CC1` are within error of each other in viability index: 1.07 ± 0.033 for the first, 1.06 ± 0.012 for the second.

`Cc1ccc(CN2CC(=O)N3[C@H](C2)[C@@H](c2ccc(-c4ccccc4F)cc2)[C@@H]3CO)cc1` and `C/C=C/c1ccc([C@@H]2[C@@H](CO)N3C(=O)CN(S(=O)(=O)c4ccccc4)C[C@H]23)cc1` are within error of each other in viability index: 1.05 ± 0.051 for the first, 1.11 ± 0.026 for the second.

`COCC(=O)N1C[C@@]2(C1)CN(Cc1ccc3OCOc3c1)[C@@H](CO)c1c2c2ccc(OC)cc2n1C` and `COc1ccc(CN(C)C[C@H]2Oc3ccc(NC(=O)Nc4ccc5c(c4)OCO5)cc3CC(=O)N([C@H](C)CO)C[C@H]2C)cc1` are within error of each other in viability index: 0.935 ± 0.05 for the first, 1.03 ± 0.1 for the second.

`CC(C)c1cccc(NC(=O)C[C@H]2CC[C@H]3[C@@H](COc4ccc(NS(=O)(=O)c5ccccc5Cl)cc4C(=O)N3C)O2)c1` and `COc1cccc(C(=O)Nc2ccc3c(c2)C(=O)N(C)[C@@H]2CC[C@@H](CC(=O)N[C@H](C)c4ccccc4)O[C@@H]2CO3)c1` are within error of each other in viability index: 1.14 ± 0.066 for the first, 1.18 ± 0.073 for the second.

First: N#Cc1ccc(-c2ccc([C@H]3[C@H]4CNCC(=O)N4[C@H]3CO)cc2)cc1
Second: CCCC#Cc1ccc([C@H]2[C@H]3CN(C(=O)Nc4cccc(F)c4)CC(=O)N3[C@H]2CO)cc1
The viability index of the first is lower: 0.939 ± 0.044 for the first, 1.1 ± 0.015 for the second.

`O=C(NCCc1ccncc1)[C@@H]1[C@@H](CO)[C@@H]2Cn3c(ccc(-c4ccccc4)c3=O)[C@@H]2N1C(=O)C1CC1` and `CCC(=O)Nc1ccc2c(c1)OC[C@@H](C)N(Cc1ccccc1)C[C@@H](C)[C@@H](OC)CN(C)C2=O` are within error of each other in viability index: 1.01 ± 0.08 for the first, 1.05 ± 0.028 for the second.

Going from `COC(=O)C[C@H]1C[C@H]2c3cc(N)ccc3O[C@H]2[C@H](CO)O1` to `COc1ccc(CNC(=O)C[C@@H]2C[C@H]3c4cc(N(C)C)ccc4O[C@H]3[C@H](CO)O2)cc1`, the viability index falls from 1.05 ± 0.0071 to 0.926 ± 0.024.

`C[C@@H]1CN([C@@H](C)CO)C(=O)CCCn2cc(nn2)CO[C@H]1CN(C)C(=O)CCC(F)(F)F` and `C[C@@H]1CN([C@@H](C)CO)C(=O)c2ccccc2-c2ccccc2CO[C@@H]1CN(C)C(=O)[C@H]1CCCN1C` are within error of each other in viability index: 1.07 ± 0.07 for the first, 0.941 ± 0.073 for the second.

`COc1ccccc1NC(=O)N1CC(=O)N2[C@H](CO)[C@H](c3ccc(C#CC(C)C)cc3)[C@H]2C1` and `COCC(=O)Nc1ccc2c(c1)C(=O)N(C)C[C@H](OC)[C@H](C)CN(CCc1ccccc1)[C@@H](C)CO2` are within error of each other in viability index: 1.05 ± 0.025 for the first, 1.03 ± 0.049 for the second.

`O=C(C[C@@H]1C[C@H]2c3cc(NS(=O)(=O)c4ccccc4)ccc3O[C@H]2[C@@H](CO)O1)N1CCOCC1` and `O=C(C[C@@H]1C[C@@H]2c3cc(NC(=O)NC4CCCC4)ccc3O[C@@H]2[C@H](CO)O1)NCc1ccccc1F` are within error of each other in viability index: 1.05 ± 0.026 for the first, 1.06 ± 0.024 for the second.

`C[C@H]1CN([C@@H](C)CO)C(=O)c2ccccc2-c2ccccc2CO[C@@H]1CN(C)C(=O)c1cc(Cl)cc(Cl)c1` and `Cc1ccc(OC(=O)N(C)C[C@@H]2OCc3ccccc3-c3ccccc3C(=O)N([C@@H](C)CO)C[C@H]2C)cc1` are within error of each other in viability index: 0.904 ± 0.034 for the first, 0.88 ± 0.0063 for the second.

First: CO[C@H](CN(C)C(=O)c1cc(Cl)cc(Cl)c1)[C@@H](C)CN(C(=O)Nc1ccc(F)cc1)[C@H](C)CO
Second: CO[C@@H](CN(C)Cc1cc(F)ccc1F)[C@@H](C)CN([C@H](C)CO)S(=O)(=O)c1ccc(C)cc1
The viability index of the first is higher: 1.1 ± 0.075 for the first, 0.936 ± 0.054 for the second.

`CO[C@H]1CN(C)C(=O)c2cc(NC(=O)NC(C)C)ccc2OC[C@@H](C)N(C(=O)CN(C)C)C[C@@H]1C` and `CCCNC(=O)Nc1ccc2c(c1)OC[C@H](C)N(S(C)(=O)=O)C[C@@H](C)[C@@H](OC)CN(C)C2=O` are within error of each other in viability index: 1.07 ± 0.085 for the first, 1.06 ± 0.013 for the second.

Compared with `N#C[C@@H]1[C@@H](c2ccc(-c3cccc(F)c3)cc2)[C@@H](CO)N1c1nc(-c2ccccc2)cs1`, `CS(=O)(=O)N1[C@H](CO)[C@H](c2ccccc2-c2ccccc2F)[C@@H]1C#N` is higher in viability index: 1.05 ± 0.013 for the first, 1.09 ± 0.019 for the second.

`C[C@@H]1CN([C@@H](C)CO)C(=O)c2ccccc2-c2ccccc2CO[C@@H]1CN(C)S(=O)(=O)c1cccc(C#N)c1` and `C[C@H]1CN([C@@H](C)CO)C(=O)c2ccccc2-c2ccccc2CO[C@@H]1CN(C)C(=O)[C@@H](Cc1ccccc1)N(C)C` are within error of each other in viability index: 1.03 ± 0.04 for the first, 1.04 ± 0.19 for the second.

`COCC#Cc1ccc2c(c1)O[C@@H](CN(C)C(=O)C1CCOCC1)[C@@H](C)CN([C@H](C)CO)S2(=O)=O` and `CC(C)NC(=O)Nc1ccc2c(c1)C(=O)N([C@@H](C)CO)C[C@H](C)[C@@H](CN(C)C(=O)C1CCCCC1)OCCCC[C@@H](C)O2` are the same in viability index: 1.06 ± 0.066 for the first, 1.06 ± 0.024 for the second.

First: CN1C(=O)c2cc(NC(=O)c3cccc(Cl)c3)ccc2OC[C@H]2O[C@@H](CC(=O)NC3CCCCC3)CC[C@H]21
Second: CN1C(=O)c2cc(NC(=O)c3ccccc3Cl)ccc2OC[C@H]2O[C@@H](CC(=O)Nc3ccc4c(c3)CCC4)CC[C@@H]21
The viability index of the first is lower: 0.946 ± 0.029 for the first, 1.16 ± 0.036 for the second.

`COCCNC(=O)C[C@@H]1CC[C@H]2[C@@H](COC[C@H](O)CN2S(=O)(=O)c2ccccc2F)O1` and `Cc1noc(C)c1NC(=O)N1C[C@H](O)COC[C@H]2O[C@@H](CC(=O)N[C@@H]3CCN(Cc4ccccc4)C3)CC[C@@H]21` are within error of each other in viability index: 1.01 ± 0.032 for the first, 0.963 ± 0.025 for the second.

`C[C@@H]1CN([C@H](C)CO)C(=O)c2cc(N(C)C)ccc2O[C@@H](C)CCCCO[C@H]1CN(C)C(=O)NC1CCCCC1` and `COc1ccc(S(=O)(=O)Nc2ccc3c(c2)C(=O)N([C@@H](C)CO)C[C@@H](C)[C@H](CN(C)Cc2ccc(C(F)(F)F)cc2)OCCCC[C@H](C)O3)cc1` are the same in viability index: 1.07 ± 0.081 for the first, 1.07 ± 0.046 for the second.

Going from `CCCNC(=O)N(C)C[C@H]1[C@H](c2ccccc2)[C@@H](CO)N1C(=O)c1ccccc1` to `C/C=C/c1ccc([C@H]2[C@@H](CN(C)C(C)=O)N(C(=O)NC(C)C)[C@H]2CO)cc1`, the viability index falls from 1.08 ± 0.012 to 1.03 ± 0.014.

`O=C(CN1CCOCC1)N1C[C@@H]2N[C@H](C1)[C@@H]2c1ccc(/C=C/c2ccccc2)cc1` and `O=C(C[C@H]1C=C[C@@H](NS(=O)(=O)c2ccc(F)cc2)[C@H](CO)O1)N1CCc2ccccc2C1` are within error of each other in viability index: 1.0546 ± 0.00012 for the first, 1.03 ± 0.029 for the second.

First: CO[C@H]1CN(C)C(=O)c2cc(NC(=O)C3CCCCC3)ccc2OC[C@H](C)N(Cc2cccnc2)C[C@H]1C
Second: COC(=O)C[C@@H]1CC[C@@H]2[C@H](COc3ccc(NC(=O)Nc4cccc(C#N)c4)cc3C(=O)N2C)O1
The viability index of the first is lower: 1.037 ± 0.0049 for the first, 1.116 ± 0.0093 for the second.

`N#C[C@@H]1[C@H](c2ccccc2C2=CCCC2)[C@H](CO)N1C(=O)NC1CCCCC1` and `O=C(NC1CCCC1)N[C@@H]1C=C[C@H](CC(=O)N2CCOCC2)O[C@H]1CO` are within error of each other in viability index: 1.1 ± 0.066 for the first, 1.059 ± 0.0098 for the second.

`C[C@H]1C/C=C/C[C@H](c2ccc(F)cc2)NC(=O)[C@H](Cc2ccccc2)N(C)C(=O)c2ccccc2O1.C[C@H]1C/C=C\C[C@H](c2ccc(F)cc2)NC(=O)[C@H](Cc2ccccc2)N(C)C(=O)c2ccccc2O1` and `Cc1noc(C)c1S(=O)(=O)Nc1ccc2c(c1)CC(=O)N([C@@H](C)CO)C[C@@H](C)[C@@H](CN(C)Cc1ccc(Oc3ccccc3)cc1)O2` are within error of each other in viability index: 0.965 ± 0.083 for the first, 0.851 ± 0.12 for the second.

`CN1C(=O)c2cc(NS(C)(=O)=O)ccc2OC[C@@H]2O[C@H](CC(=O)NCc3ccccc3)CC[C@H]21` and `CCNC(=O)c1cc2c(c(-c3cccc(-c4cccnc4)c3)n1)[C@H](CCO)N(S(C)(=O)=O)C2` are within error of each other in viability index: 1.13 ± 0.08 for the first, 1.04 ± 0.018 for the second.

`O=C1CCCc2cnnn2COCCN1` and `O=C(NC1CCCC1)N[C@H]1C=C[C@@H](CC(=O)N2CCOCC2)O[C@H]1CO` are within error of each other in viability index: 0.993 ± 0.1 for the first, 1.1 ± 0.16 for the second.

`COc1cccc(-c2cccc(-c3nc(C(=O)O)cc4c3[C@@H](CCO)N(S(=O)C(C)(C)C)C4)c2)c1` (stereo not given in full) and `CC(C)NC(=O)N[C@@H]1CC[C@H](CC(=O)NCCCN(C)C)O[C@H]1CO` are the same in viability index: 1.009 ± 0.0083 for the first, 1.01 ± 0.017 for the second.
